Assay results taken from PubChem BioAssay AID686971 (National Center for Advancing Translational Sciences (NCATS), 2013).
Out of some 360,000 compounds screened, about 7,500 (2.1%) were called active. The shares of active, inactive and inconclusive entries below differ from those in the screen. The call rests on the fitted dose curve; in most records, active means well fitted cell-killing curve with a large enough effect; inconclusive means small, poorly fitted or top-dose-only effect, or effect the other way, or another doubt; inactive means no such curve, though single readings can be large or run the other way. No potency is given beside an inconclusive call; the fits are too rough.

test: qHTS for induction of synthetic lethality in tumor cells producing 2HG: qHTS for the HT-1080-IDH1KD cell line; conditions: HT-1080 IDH1 knockdown viability, ATP luminescence, 48 h; activity, negative = toxicity: at 46.1 µM (top of the series) unless noted;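 on activity, negative = toxicity: 0% = DMSO wells and -100% = cell-free medium wells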
Procedure, shortened: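 CellTiter-Glo luminescence after 48 h compound exposure at 37 degrees C of IDH1-knockdown HT-1080 cells in 5% FBS RPMI. %Activity scaled between DMSO wells and cell-free media wells, with curves fitted and assigned curve classes.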
Potency means the concentration at half of the fitted maximal effect; tags describe the fitted curve by direction and shape.

SMILES	Potency	activity, negative = toxicity
O=C1C(N2CCOCC2)=C(n2nnc3ccccc32)C(=O)c2ccccc21	active: 16.4 µM	
O=C(CSc1ccc(Cl)cc1)Nc1ccc(N2CCN(C(=O)c3ccco3)CC2)cc1	inconclusive [cytotoxic, single point]	
OC(c1cccc(Cl)c1)c1nc(-c2ccc(F)c(Cl)c2)cs1 (stereo unspecified)	inconclusive [cytotoxic, single point]	
Cc1ccc(S(=O)(=O)N2[C@H](CC(=O)Oc3ccccc3)OC[C@@H]2C(C)C)cc1		inactive: -2.07%
COc1cc(OC)cc(-c2nnc(SCc3cccnc3)o2)c1		inactive: 17.9%
COc1ccc(-c2cc(C)no2)cc1S(=O)(=O)N1CCN(c2cccc(C)c2)C(C)C1 (stereo unspecified)	inconclusive [cytotoxic, full curve]	
Cc1nc2ccccc2c(=O)n1NC(=O)c1ccc(Cl)c([N+](=O)[O-])c1	inconclusive [cytotoxic, single point]	
c1ccc2oc(SCc3cn4ccccc4n3)nc2c1	inconclusive [cytotoxic, single point]	
CCOc1cccc(-c2c(C(=O)N/N=C(\C)c3ccncc3)nnn2-c2nonc2N)c1		inactive: -3.19%
CC1(C(=O)Nc2cccc3cccnc23)CCN1Cc1ccc(-c2ccccc2)o1 (stereo unspecified)		inactive: -11.4%
CNCCCOc1ccc(C)cc1Br		inactive: -9.75%
S=C(NCc1ccco1)Nc1ccc(Cl)c(Cl)c1	inconclusive [cytotoxic, single point]	
COc1ccc(CC(=O)N2N=C(C)CC2(O)c2cccnc2)cc1OC (stereo unspecified)		inactive: 11.7%
NC(=O)c1cccc(Nc2nc(C(N)CCc3ccccc3)cs2)n1 (stereo unspecified)	inconclusive [cytotoxic, partial curve]	
COc1cc(OC)cc(C(=O)NC(=S)NCCc2ccccc2)c1	active: 35.5 µM	
COc1ccc(N2CCN(C(=O)CSc3ncnc4scc(-c5ccc(C)cc5)c34)CC2)cc1		inactive: -17.1%
CC(C)[C@@H]1CC2=C(C(=O)OC(C)(C)O2)[C@H](CCc2ccccc2)O1	active: 16.4 µM	
CC(=O)c1ccc(-c2cnc3c(NC=O)cc(-c4ccc(S(C)(=O)=O)cc4)cn23)cc1	active: 6.51 µM	
Cc1ccc(F)cc1-c1cc2nc(NCCCN(C)C)n(C)c(=O)c2s1	active: 14.6 µM	
O=C(Nc1nc(-c2cccs2)cs1)c1ccc(S(=O)(=O)N2CCCC2)cc1	inconclusive [cytotoxic, single point]	
Cc1sc2ncnc(NCC3COc4ccccc4O3)c2c1C (stereo unspecified)		inconclusive: -17.1% [cytotoxic]
CCN(C[C@H]1N[C@@](Cc2ccccc2)(C(=O)OC)[C@H]2C(=O)N(Cc3ccccc3)C(=O)[C@@H]12)C(=O)C1CCCCC1		inactive: -0.17%
COc1ccc2c(CC(=O)OCC(=O)N(C)c3c(N)n(Cc4ccccc4)c(=O)[nH]c3=O)coc2c1	inconclusive [cytotoxic, single point]	
CS(=O)c1nc(-c2ccc(Br)cc2)cc(-c2ccccc2)c1C#N (stereo unspecified)	active: 3.55 µM	

SMILES	Potency	activity, negative = toxicity
COc1ccc(CC(=O)NCC(=O)Nc2ccccc2Br)cc1		inconclusive: -30.6% [cytotoxic]
CCOc1ccc(C(=O)COC(=O)c2cc([N+](=O)[O-])ccc2N2CCOCC2)cc1	inconclusive [cytotoxic, single point]	
O=[N+]([O-])c1ccc(C(O)CN2CCOCC2)cc1 (stereo unspecified)		inactive: -1.79%
COc1ccc(-c2noc(-c3ccccc3C(=O)N3CCOCC3)n2)cc1		inactive: 3.46%
Cc1nc2ccc(NC(=O)c3ccc([N+](=O)[O-])cc3)cc2[nH]1	inconclusive [rising, full curve, poor fit]	
Cc1ccc(-n2[nH]c(C)c(/C=N/n3c(C)nc4ccccc4c3=O)c2=O)cc1	active: 11.2 µM	
O=C(Nc1ccc(Cl)cc1)C1c2cccc[n+]2CC(=O)N1Cc1ccc2c(c1)OCO2 (stereo unspecified)	inconclusive [cytotoxic, single point]	
O=C(NN=Cc1ccccc1O)c1cccc([N+](=O)[O-])c1	active: 1.16 µM	
CCOC(=O)c1c(C)[nH]c2c1-c1ccccc1C(=O)C2=O	active: 2.91 µM	
O=c1c(-c2cccs2)nc2ccccc2n1C(c1ccccn1)c1nc2ccccc2[nH]1 (stereo unspecified)		inactive: -17%
COc1ccc(C(=O)c2ccc(OC)c(OC)c2OC)cc1	active: 10.3 µM	
CN(C)CCCn1c(SCC(=O)Nc2nc(-c3cccc(Br)c3)cs2)nc2ccccc2c1=O	active: 16.4 µM	
CCC(c1ccccc1)C(CC)c1cc(O)c(O)c(O)c1 (stereo unspecified)	inconclusive [cytotoxic, single point]	
CN(c1ccccc1)S(=O)(=O)c1cccc(NC(=O)c2cncc(Br)c2)c1	inconclusive [cytotoxic, single point]	
COc1ccccc1NC(=O)CSc1nc2n[nH]c(C)c2c(=N)n1-c1ccccc1Cl	inconclusive [cytotoxic, single point]	
CS(=O)(=O)c1ccc(Nc2nc(C(N)Cc3ccccc3)cs2)cc1 (stereo unspecified)		inactive: -12.7%
O=S(=O)(c1cccc(COc2c(Cl)cccc2Cl)c1)N1CCOCC1		inactive: -2.46%
COc1ccc(NC(=O)[C@@H]2CCCN2C(=O)[C@@H]2Cc3ccccc3CN2C(=O)OC(C)(C)C)cc1	inconclusive [cytotoxic, partial curve]	
CC1(Cc2cccc(C#N)c2)C(=O)Nc2ccc(-c3cccc(C(F)(F)F)c3)cc21 (stereo unspecified)	inconclusive [cytotoxic, single point]	
COc1ccccc1N(CC(=O)N1CCCCCC1)S(=O)(=O)c1ccc(C)cc1		inactive: -4.16%
Cc1ccc(C(c2nnnn2CCC(C)C)N2CCN(C)CC2)cc1 (stereo unspecified)		inactive: -6.37%
CC(C)=CCC/C(C)=C/CNC(=O)C[C@H]1C[C@H](C(=O)N2CCOCC2)[C@@]2(C)c3[nH]c4cc(-c5ccco5)ccc4c3CCN2C1=O	inconclusive [cytotoxic, single point]	
Cc1cnc(NC(=O)c2cc3c(C)nn(-c4ccccc4)c3s2)s1	inconclusive [cytotoxic, single point]	
CCOC(=O)N1CCN(C(=O)c2ccc3c(c2)N(C)C(=O)/C(=C\c2ccc(OCC)c(OC)c2)S3)CC1	inconclusive [cytotoxic, partial curve]	

SMILES	Potency	activity, negative = toxicity
Cc1ccc(S(=O)(=O)NCCC(=O)Nc2cc(S(=O)(=O)N(C)C)ccc2C)cc1C		inactive: 1.21%
CCOC(=O)c1cc(-c2ccccc2C)n(CC2CC(c3cccc([N+](=O)[O-])c3)=NO2)n1 (stereo unspecified)	inconclusive [cytotoxic, single point]	
O=C(CCl)Nc1cc(-c2ccccc2)nn1-c1ccccc1	active: 1.58 µM	
CN(CCc1nc2ccc(Cl)cc2[nH]1)Cc1nc(CC2CC2)no1		inactive: 15.1%
O=C(Nc1ccc(C(=O)O)cc1)/C(=C\C=C\c1ccccc1)NC(=O)c1ccc(Br)cc1	inconclusive [cytotoxic, single point]	
COC(=O)C[C@@H]1C[C@H]2c3cc(NS(C)(=O)=O)ccc3O[C@H]2[C@H](CO)O1		inactive: 4.83%
COC(=O)[C@@]12C[C@@H](CC(=O)NCC3CCCCC3)C(=O)N(CCc3ccc(OC)c(OC)c3)C1=CCC(C)(C)C2	inconclusive [cytotoxic, single point]	
COc1cc(CCN(C(=O)c2cc3ccccc3[nH]2)C(c2ccccn2)c2nc3ccccc3[nH]2)cc(OC)c1 (stereo unspecified)	inconclusive [cytotoxic, single point]	
Cc1ccc(NC(=O)C(=O)NC(C)C2COc3ccccc3O2)cc1 (stereo unspecified)	inconclusive [cytotoxic, single point]	
CCOC(=O)c1cc(CC)sc1NC(=O)c1cc([N+](=O)[O-])ccc1N1CCOCC1	inconclusive [cytotoxic, full curve]	
CCN1CCCC1CNC(=O)c1ccc(Sc2ccccc2Cl)c([N+](=O)[O-])c1 (stereo unspecified)	inconclusive [cytotoxic, single point]	
O=C(NC(=O)c1ccc(F)cc1F)Nc1ccc(Cl)cc1		inactive: 23.5%
O=C(NN=C1CCCCCC1)c1cc(-c2ccccc2)nc2ccccc12	inconclusive [cytotoxic, single point]	
Cc1nc(-c2ccc3c(c2)OCCCO3)cs1		inactive: 21.8%
Cc1sc2ncnc(N3CCN(CCOc4ccc(Cl)cc4)CC3)c2c1C	inconclusive [cytotoxic, partial curve]	
CC1(C)CCC[C@]2(C)[C@H]3CC(=O)O[C@]3(C)CC[C@@H]12		inactive: -0.291%
N#CC1=C(N)Oc2cc(O)ccc2C1C1CCCCC1 (stereo unspecified)	inconclusive [cytotoxic, single point]	
CCOc1ccc(S(=O)(=O)N2CCN(C(=O)COc3ccc(Br)cc3)CC2)cc1	inconclusive [cytotoxic, single point]	
COc1ccc(-c2nc(Cn3c(SCc4ccc(C)cc4)nc4ccncc43)c(C)o2)cc1OC	inconclusive [cytotoxic, single point]	
CCc1ccc2c(c1)NC(=O)C2(C)Cc1ccc(C(F)(F)F)o1 (stereo unspecified)	inconclusive [cytotoxic, single point]	
O=S(=O)(NCCSCc1ccc(Cl)c(Cl)c1)c1ccc2c(c1)OCCO2	inconclusive [cytotoxic, partial curve]	
COc1cccc(/C=N/Nc2ncnc3scc(-c4ccccc4)c23)c1OC	active: 11.2 µM	
O=S(=O)(c1ccccc1)N1CCNCC1		inactive: -1.76%
